From PubChem BioAssay AID686979 (National Center for Advancing Translational Sciences (NCATS), 2013)
Where “and” joins values, the source holds several entries; their conditions need not be identical. Equal values may be shown once. The campaign covered roughly 420,000 compounds. About 50,000 (12%) were called active. This list was built around the results that the source calls inconclusive (neither active nor inactive); the mix of calls is not that of the screen. The call rests on the fitted dose curve; in most records, active means well fitted inhibition curve with a large enough effect; inconclusive means small, poorly fitted or top-dose-only effect; inactive means flat fitted curve, though single readings scatter. Potencies of inconclusive entries are doubtful fits and often do not repeat.

Assay: qHTS for Inhibitors of human tyrosyl-DNA phosphodiesterase 1 (TDP1): qHTS in cells in presence of CPT; further: nearly all actives have a fitted effect of over 55% in size
Conditions: chicken DT40 Tdp1-/-;hTDP1 cells + 20 nM CPT, ATP luminescence, 48 h; activity change, negative = growth inhibition: at 46.2 µM (top of the series)
Outline: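 Cell growth measured by CellTiter-Glo luminescence after a minimum 48 h, 37 C compound exposure with 20 nM CPT in Tdp1-knockout DT40 cells stably expressing hTDP1, seeded 400/well; qHTS titration format.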
On the % scale 0 is the no-effect control and ±100 the full control effect; potency means the concentration at half of the fitted maximal effect; tags describe the fitted curve by direction and shape.

Structure (SMILES)	Potency	activity change, negative = growth inhibition
COc1ccccc1NC(=O)NC1(C)CCS(=O)(=O)C1 (centres undefined)	inactive	–
CN(C)/C=C/C1=C([N+](=O)[O-])C(c2cccc([N+](=O)[O-])c2)NC(=O)N1 (centres undefined)	inactive	–
O=C(O)c1cc([N+](=O)[O-])cc2ccccc12	inactive	–
Cc1cccc(C(=O)Oc2c(Sc3ccccc3)c(C)nn2C(C)(C)C)c1	inconclusive: 23.1 µM [inhibitor, partial curve]	–
O=C(Nc1ccc2nc(-c3ccccc3)[nH]c2c1)c1ccco1	inconclusive: 29.1 µM [inhibitor, single point]	–
Cc1ccc(NC(=O)C2CCCN2C(=O)OCc2ccccc2)cc1F (centres undefined)	inconclusive: 25.9 µM [inhibitor, single point]	–
Cc1ccccc1NC(=S)C1=C(O)c2sccc2N(C)S1(=O)=O	inconclusive: 29.1 µM [inhibitor, single point]	–
Cn1c(=O)c(=O)n(C)c2cc(S(=O)(=O)N3CCN(c4ccccc4)CC3)ccc21	inconclusive: 25.9 µM [inhibitor, single point]	–
COc1cccc(-c2cc(C(=O)Nc3cccnc3)c3ccccc3n2)c1	inconclusive: 25.9 µM [inhibitor, single point]	–
Cc1noc(C)c1-c1nc(N2CCNCC2)c2ccccc2n1	inconclusive: 20.6 µM [inhibitor, single point]	–
COc1ccc(Nc2c3c(nc4nncn24)CCC3)cc1OC	inconclusive: 25.9 µM [inhibitor, single point]	–
Cc1ccc(S(=O)(=O)N2C[C@H]3C(=O)C[C@@H](c4ccccc4F)N(S(=O)(=O)c4ccc(C)cc4)[C@H]3C[C@H]2c2cccc3ccccc23)cc1	inactive	–
O=C(OCC(=O)N(CCc1ccccc1)Cc1ccccc1)c1ccc(F)c(S(=O)(=O)N2CCOCC2)c1	inconclusive: 29.1 µM [inhibitor, partial curve, poor fit]	–
COc1ccc(NC(=O)C2(C)Cc3c(-c4cccc(C(N)=O)c4)ccnc3O2)cc1 (centres undefined)	active: 3.66 µM	–
Cc1cnc(CNc2cc(-c3ccccc3CN(C)C)ncn2)cn1	inactive	–
CCN(C(=O)c1cccc(S(=O)(=O)N2CCc3ccccc32)c1)C1CCS(=O)(=O)C1 (centres undefined)	–	inconclusive: -36.2% [inhibitor]
CN(C)CCNC(=O)C(=O)Nc1cc2c3c(c1)CCC(=O)N3CCC2	inactive	–
CC1(C)C/C(=N/Nc2ccc([N+](=O)[O-])cc2[N+](=O)[O-])C(C)(C)O1	inactive	–
Cc1ccc(C(=O)CN2C(=O)c3ccccc3S2(=O)=O)cc1	inactive	–
CCc1nn(CC(=O)Nc2ccc(NC(C)=O)cc2)c(=O)c2cc3sccc3n12	inactive	–
CC(=O)Nc1ccc(CN2CCCC(CO)(Cc3ccccc3C)C2)cc1 (centres undefined)	inconclusive: 29.1 µM [inhibitor, partial curve, poor fit]	–
Cc1ccc2c(c1)N(CC(=O)N(Cc1ccccn1)Cc1ccco1)C(=O)C(C(C)C)O2 (centres undefined)	inconclusive: 29.1 µM [inhibitor, single point]	–
COc1ccc(CNC(=O)CSc2c3c(nc4ccc(Cl)cc24)CCCC3)cc1	inconclusive: 29.1 µM [inhibitor, single point]	–

Structure (SMILES)	Potency	activity change, negative = growth inhibition
O=C(Nc1ccc2c(c1)OCCO2)c1c(F)c(F)c(F)c(F)c1F	active: 18.4 µM	–
O=C1c2cccc3cccc(c23)C(=O)N1Cc1ccccn1	inactive	–
O=C(NCc1ccco1)c1sc2cccc(F)c2c1Cl	inconclusive: 32.6 µM [inhibitor, partial curve]	–
O=C(Nc1ccc(Cl)cc1)c1sccc1-n1cccc1	inactive	–
CCCn1c(SCC(=O)Nc2cc(Cl)ccc2Cl)n[nH]c1=O	inconclusive: 18.4 µM [inhibitor, single point]	–
CCc1nc2c(OCCn3cccc3)cccn2c1N(C)C(=O)c1cccs1	inconclusive: 25.9 µM [inhibitor, single point]	–
O=C(CCN1C(=O)/C(=C/c2ccc3c(c2)OCO3)SC1=S)NNC(=O)c1cccnc1	inconclusive: 29.1 µM [inhibitor, single point]	–
Cc1cc(N2C(=O)C(=O)/C(=C(/O)c3ccc(F)cc3)C2c2cccc(Br)c2)no1 (centres undefined)	inconclusive: 29.1 µM [inhibitor, single point]	–
O=C(c1ccc(Cl)c(S(=O)(=O)N2CCCCC2)c1)N1CCCCCC1	inactive	–
CCN(CC)C(=O)Cn1cc(C(=O)C(=O)N2CC=C(c3ccccc3)CC2)c2ccccc21	inactive	–
Cc1cc(=O)n2c(nc3ccccc32)[nH]1	inactive	–
O=C(Oc1ccc(-c2ccccc2)cc1)N1CCOCC1	–	inconclusive: -34.4% [inhibitor]
CC(Sc1nnc(CNc2cccc3ccccc23)n1-c1ccccc1)C(=O)N/N=C/c1ccco1 (centres undefined)	inactive	–
CCOC(=O)C1=C(C)N(CCC(=O)O)C(=O)NC1c1ccccc1Cl (centres undefined)	inactive	–
O=C(Cn1cnc2onc(-c3ccc(Cl)cc3)c2c1=O)Nc1ccc(F)cc1	inconclusive: 29.1 µM [inhibitor, single point]	–
CCn1ncc(NC(=S)NCCc2ccccc2)c1C(N)=O	inactive	–
COc1ccc(CCC(=O)N2c3ccccc3CC2C)cc1 (centres undefined)	inconclusive: 35.5 µM [inhibitor, single point]	–
CCCCCCn1c(SCC(=O)c2ccccc2)nc2c1c(=O)[nH]c(=O)n2C	inconclusive: 29.1 µM [inhibitor, single point]	–
O=[N+]([O-])c1nn(-c2cccc(Cl)c2)n(O)c1=NCc1cccnc1	active: 8.2 µM	–
Cc1ccc(NC(=O)c2cc(N3C(=O)CCC3=O)ccc2N2CCCCC2)cc1	inactive	–
O=C(COC(=O)c1ccccc1SCC(=O)NC1CCS(=O)(=O)C1)NC1CCS(=O)(=O)C1 (centres undefined)	inactive	–
C/C(=N\NC(=O)c1ccc(C)cc1)c1c(C)[nH]n(-c2ccccc2)c1=O	active: 4.61 µM	–
CCOC(=O)c1ccc(N2C(=O)c3n[nH]c(-c4ccco4)c3C2c2cccc(O)c2)cc1 (centres undefined)	active: 20.6 µM	–

Structure (SMILES)	Potency	activity change, negative = growth inhibition
CC(C)n1c(NCc2c[nH]c3ccccc23)nc2ccccc21	inconclusive: 29.1 µM [inhibitor, single point]	–
Cc1ccc(S(=O)(=O)N(CCc2ccccc2)CC(=O)Nc2ccc(Br)cc2)cc1	inconclusive: 29.1 µM [inhibitor, single point]	–
CCn1c(=O)c(C(=O)CN(C)Cc2cccc(OC)c2OC)c(N)n(Cc2ccccc2)c1=O	inconclusive: 29.1 µM [inhibitor, single point]	–
O=C(Cn1nc2ccccc2n1)N/N=C/c1cc([N+](=O)[O-])ccc1O	inconclusive: 29.1 µM [inhibitor, single point]	–
CC(C)CC1(C(=O)NCCc2c[nH]c3ccccc23)C=CCN1C(=O)c1ccccc1 (centres undefined)	inconclusive: 29.1 µM [inhibitor, single point]	–
CN(C)C(=O)c1nc2ccc(Cl)cn2c1CNCc1cccc(OC(F)(F)F)c1	inconclusive: 20.6 µM [inhibitor, single point]	–
COCCCNC(=O)C[C@@H]1C[C@@]2(C(=O)OC)CCCCC=C2N(Cc2cccc3ccccc23)C1=O	inconclusive: 29.1 µM [inhibitor, single point]	–
CCOC(=O)N1CCC(O)(c2cc(C)c(C)cc2C)CC1	inconclusive: 29.1 µM [inhibitor, single point]	–
CC1=C(C(=O)NC2CCCc3c2cnn3-c2ccc(F)cc2F)OCCO1 (centres undefined)	active: 20.6 µM	–
CN(C)c1ccc(/C=C2/CCc3ccccc32)cc1	active: 14.1 µM	–
c1ccc2[nH]c(CSc3nc4ccccc4s3)nc2c1	inconclusive: 18.4 µM [inhibitor, single point]	–
Cc1cccc(NC(=O)c2oc3ccccc3c2NC(=O)Cc2coc3ccc(C(C)C)cc23)c1	inconclusive: 6.51 µM [inhibitor, single point]	–
O=C(NCCC1=CCCCC1)C1CCN(S(=O)(=O)c2ccc(-n3cnnn3)cc2)CC1	inconclusive: 20.6 µM [inhibitor, partial curve]	–
COc1ccc(-c2nc(CCNC(=O)c3ccc(Br)o3)cs2)cc1	inconclusive: 29.1 µM [inhibitor, single point] and inconclusive: 23.1 µM [inhibitor, single point]	–
c1cncc(-c2nc(N3CCOCC3)c3ccccc3n2)c1	inconclusive: 16.4 µM [inhibitor, partial curve]	–
O=C(NCCC1CCCCN1S(=O)(=O)c1cccs1)C(=O)Nc1ccccc1F (centres undefined)	inconclusive: 18.4 µM [inhibitor, single point]	–
COc1ccc2cc(C3CC(c4ccco4)=NN3S(=O)(=O)c3ccccc3)c(Cl)nc2c1 (centres undefined)	inconclusive: 20.6 µM [inhibitor, single point]	–
O=S1(=O)N[C@@H](Cc2ccccc2)COc2cc(N3CCC[C@H]3CO)ccc21	inconclusive: 29.1 µM [inhibitor, single point]	–
Cc1ccc([C@H]2C[C@H](n3cc(-c4ccc(F)cc4)nn3)[C@@H](O)CN2CC2CCCCC2)cc1	inconclusive: 29.1 µM [inhibitor, single point]	–
N#Cc1ncc(-c2ccc3c(c2)OCCOCCOCCOCCO3)nc1C#N	active: 5.8 µM	–
Oc1cccc(CCc2ccccn2)c1	inactive	–
CCOC(=O)C[C@H]1c2ccccc2S(=O)(=O)N1c1cccc(OC)c1	inconclusive: 28.2 µM [inhibitor, single point] and inconclusive: 29.1 µM [inhibitor, single point]	–
C#CCOCCOCCOCCNc1nc(N2CCN(C(=O)[C@H](CCC(=O)O)n3cc(CN)nn3)CC2)nc(N2CCN(C(=O)[C@H](CCCN=C(N)N)n3cc(C(N)[C@@H](C)CC)nn3)CC2)n1 (some centres undefined)	inactive	–
